The other results are listed elsewhere or left out. At the low end of the ranking the order means little.

The target of this test is GST-SBP-SLBP (stem-loop binding protein) (UniProt Q14493). The experiment in a line: targeted RNA Bind-n-Seq.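 Note: DESeq read counts versus GST-SBP nonspecific binding control pulldown.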 Conditions: RBNS binding buffer: 25 mM Tris pH 7.5, 150 mM KCl, 3 mM MgCl2, 0.1% Tween, 0.5 mg/mL BSA, 1 mM DTT; 27 nM protein, 750 pM RNA pool; temperature not stated; high values mean tight binding.
As to “GGUCACGUCUCAAUCAACUCUUCGGCAGGAGUUUACUCCUGGAUAUUCAACAGCUCGCAGUCAAG”, the binding signal (log2 fold change) was found to be 0.0367.

Regarding “GGUCACGUCUCAAUCAACUCAUCCCCCAGGGAAAGCCCUGGCAAAUUCAACAGCUCGCAGUCAAG”, the binding signal (log2 fold change) stood at 0.103.

“GGUCACGUCUCAAUCAACUCCUUAGAGGGGGGGAAAACCCCUUUGCCCUCACUUUCAACAGCUCGCAGUCAAG”: the binding signal (log2 fold change) is -0.00473.

As to “GGUCACGUCUCAAUCAACUCUAUCCCAGGAGUUUACUCCUGCAAAUUCAACAGCUCGCAGUCAAG”, the binding signal (log2 fold change) was -0.124.

As for “GGUCACGUCUCAAUCAACUCAUCCCCAGGAGUUUCCUCCUGUUAUCUCAACAGCUCGCAGUCAAG”, the binding signal (log2 fold change) is -0.0634.

For the sequence “GGUCACGUCUCAAUCAACUCUUCGUCCAGGGAAACCCCUGGCAAUUUCAACAGCUCGCAGUCAAG”, the binding signal (log2 fold change) is 0.00791.

In the case of “GGUCACGUCUCAAUCAACUCUACUCCAGGAGUUUACUCCUGUAUUCUCAACAGCUCGCAGUCAAG”, the binding signal (log2 fold change) was -0.0668.

Turning to “GGUCACGUCUCAAUCAACUCUUCUUCCAGGGAAAGCCCUGGUUAUCUCAACAGCUCGCAGUCAAG”, the binding signal (log2 fold change) was found to be 0.115.

As for “GGUCACGUCUCAAUCAACUCUUAAGAGGGGGGGAAAACCCCUUUGCCCUCGUAUUCAACAGCUCGCAGUCAAG”, the binding signal (log2 fold change) was -0.295.

For “GGUCACGUCUCAAUCAACUCUUCUCCAGGAGUUUCCUCCUGUAAUGUCAACAGCUCGCAGUCAAG”, the binding signal (log2 fold change) was -0.083.

Turning to “GGUCACGUCUCAAUCAACUCUAAAGAGGGGGGGAAAACCCCUUUGCCCUCACCUUCAACAGCUCGCAGUCAAG”, the binding signal (log2 fold change) was -0.382.

On to “GGUCACGUCUCAAUCAACUCAAUCUCCAGGGAAAUCCCUGGCAUAGUCAACAGCUCGCAGUCAAG”, for which the binding signal (log2 fold change) was 0.00803.

As to “GGUCACGUCUCAAUCAACUCCUUAGAGGGGGGGAAAACCCCUUUACCCUCGUUCUCAACAGCUCGCAGUCAAG”, the binding signal (log2 fold change) is -0.0759.

For the sequence “GGUCACGUCUCAAUCAACUCAAUGUCAGGAGUUUCCUCCUGCUUUCUCAACAGCUCGCAGUCAAG”, the binding signal (log2 fold change) is -0.113.

Turning to “GGUCACGUCUCAAUCAACUCAGUCUCCAGGGAAAGCCCUGGCUUUUUCAACAGCUCGCAGUCAAG”, the binding signal (log2 fold change) was -0.173.

For the sequence “GGUCACGUCUCAAUCAACUCAAUCUCAGGAGUUUUCUCCUGCUUAUUCAACAGCUCGCAGUCAAG”, the binding signal (log2 fold change) was 0.107.

As for “GGUCACGUCUCAAUCAACUCAACAGAGGGGGGGAAAACCCCUUUACCCUCAUCAUCAACAGCUCGCAGUCAAG”, the binding signal (log2 fold change) was -0.0881.

With “GGUCACGUCUCAAUCAACUCUUUCCCCAGGGAAACCCCUGGUAAUCUCAACAGCUCGCAGUCAAG”, the binding signal (log2 fold change) was -0.315.

As for “GGUCACGUCUCAAUCAACUCAUUCUCCAGGGAAACCCCUGGCUUUUUCAACAGCUCGCAGUCAAG”, the binding signal (log2 fold change) was 0.0546.

As for “GGUCACGUCUCAAUCAACUCUUCGUCAGGAGUUUUCUCCUGCAAUCUCAACAGCUCGCAGUCAAG”, the binding signal (log2 fold change) is 0.00878.

“GGUCACGUCUCAAUCAACUCUUUCCCAGGAGUUUACUCCUGUUAAUUCAACAGCUCGCAGUCAAG”: the binding signal (log2 fold change) amounted to 0.0353.

Take “GGUCACGUCUCAAUCAACUCAUCCUCAGGAGUUUACUCCUGCAAUUUCAACAGCUCGCAGUCAAG”: the binding signal (log2 fold change) was -0.322.

For “GGUCACGUCUCAAUCAACUCUAUUCCCAGGGAAAACCCUGGUUUUCUCAACAGCUCGCAGUCAAG”, the binding signal (log2 fold change) is -0.34.

Consider “GGUCACGUCUCAAUCAACUCAUCGUCAGGAGUUUGCUCCUGUAUAUUCAACAGCUCGCAGUCAAG”, for which the binding signal (log2 fold change) came out at 0.235.

Consider “GGUCACGUCUCAAUCAACUCAUCGGCAGGAGUUUACUCCUGGAUAUUCAACAGCUCGCAGUCAAG”, for which the binding signal (log2 fold change) came to 0.0378.

As for “GGUCACGUCUCAAUCAACUCUAUCUCCAGGGAAAUCCCUGGCUAUUUCAACAGCUCGCAGUCAAG”, the binding signal (log2 fold change) came out at 0.136.

As for “GGUCACGUCUCAAUCAACUCACUAGAGGGGGGGAAAACCCCUUUACCCUCCGUAUCAACAGCUCGCAGUCAAG”, the binding signal (log2 fold change) amounted to 0.189.

On to “GGUCACGUCUCAAUCAACUCUCUAGAGGGGGGGAAAACCCCUUUACCCUCAAAAUCAACAGCUCGCAGUCAAG”, for which the binding signal (log2 fold change) is -0.205.

Regarding “GGUCACGUCUCAAUCAACUCAUACGAGGGGGGGAAAACCCCUUUGCCCUCAUUCUCAACAGCUCGCAGUCAAG”, the binding signal (log2 fold change) was -0.629.

Regarding “GGUCACGUCUCAAUCAACUCAUCGCCCAGGGAAAGCCCUGGUAAAUUCAACAGCUCGCAGUCAAG”, the binding signal (log2 fold change) is -0.795.

As to “GGUCACGUCUCAAUCAACUCAAAAGAGGGGGGGAAAACCCCUUUGCCCUCACAAUCAACAGCUCGCAGUCAAG”, the binding signal (log2 fold change) worked out at 0.31.

Turning to “GGUCACGUCUCAAUCAACUCAGUUCCAGGAGUUUCCUCCUGCAUAUUCAACAGCUCGCAGUCAAG”, the binding signal (log2 fold change) is 0.0258.

For the sequence “GGUCACGUCUCAAUCAACUCAAUCCCCAGGGAAAUCCCUGGUUAAUUCAACAGCUCGCAGUCAAG”, the binding signal (log2 fold change) worked out at 0.035.

Regarding “GGUCACGUCUCAAUCAACUCUUCGUCCAGGGAAAGCCCUGGUUUUCUCAACAGCUCGCAGUCAAG”, the binding signal (log2 fold change) is -0.0976.

Take “GGUCACGUCUCAAUCAACUCUUCGUCCAGGGAAAGCCCUGGUAAAUUCAACAGCUCGCAGUCAAG”: the binding signal (log2 fold change) came to 0.0243.

Regarding “GGUCACGUCUCAAUCAACUCAAUCCCAGGAGUUUUCUCCUGCUAUCUCAACAGCUCGCAGUCAAG”, the binding signal (log2 fold change) was determined as 0.211.

Take “GGUCACGUCUCAAUCAACUCUCCCGAGGGGGGGAAAACCCCUUUACCCUCACUCUCAACAGCUCGCAGUCAAG”: the binding signal (log2 fold change) was 0.234.

The values are drawn from PMC5892938.
